US20140031278A1, “Novel Glucagon Analogues” (NOVO NORDISK A/S, priority 2011, published 2014)
At least one compound was matched to its structure with a doubt left. *1 amine or outer side, *2 acyl side, *3 side chain or, on linkers, in order; H or OH if unused. Where a SMILES comes first, the peptide text is derived from it. Side-chain parts run from the residue outwards. γGlu = O=C(O)[C@H](CCC(=O)[*:2])N[*:1]

Experiment: ThT fibrillation assay for physical stability (lag time, recovery)
Type: physicochemical
Conditions: for ThT assay [Lag time]: absence of increased ThT fluorescence noted as lag time of 45 hours; for ThT assay [Recovery]: peptide concentration in filtered supernatant after ThT assay as percentage of initial

Q: Which “ThT assay [Lag time]” value does the source give for CC[C@H](C)[C@H](NC(=O)[C@H](CC(=O)O)NC(=O)[C@H](CC(C)C)NC(=O)[C@H](Cc1ccc(O)cc1)NC(=O)[C@H](CCCCN)NC(=O)[C@H](CO)NC(=O)[C@H](Cc1ccc(O)cc1)NC(=O)[C@H](CC(=O)O)NC(=O)[C@H](CO)NC(=O)[C@@H](NC(=O)[C@H](Cc1ccccc1)NC(=O)[C@@H](NC(=O)CNC(=O)[C@H](CCC(N)=O)NC(=O)[C@H](CO)NC(=O)[C@@H](N)Cc1c[nH]cn1)[C@@H](C)O)[C@@H](C)O)C(=O)N[C@@H](CCCNC(=N)N)C(=O)N[C@@H](CCCNC(=N)N)C(=O)N[C@@H](C)C(=O)N[C@@H](CCC(N)=O)C(=O)N[C@@H](CC(=O)O)C(=O)N[C@@H](Cc1ccccc1)C(=O)N[C@H](C(=O)N[C@@H](CCCCNC(=O)CC[C@H](NC(=O)CC[C@H](NC(=O)CC[C@H](NC(=O)CC[C@H](NC(C)=O)C(=O)O)C(=O)O)C(=O)O)C(=O)O)C(=O)N[C@@H](Cc1c[nH]c2ccccc12)C(=O)N[C@@H](CC(C)C)C(=O)N[C@@H](CC(C)C)C(=O)N[C@@H](CO)C(=O)N[C@H](C(=O)O)[C@@H](C)O)C(C)C [Example 36, N^ε24-[(4S)-4-[[(4S)-4-[[(4S)-4-[[(4S)-4-acetamido-4-carboxybutanoyl]amino]-4-carboxybutanoyl]amino]-4-carbox[…]ybutanoyl]amino]-4-carboxybutanoyl]-[Ile16,Lys24,Leu27,Ser28]-Glucagon] here?
A: 45 h

Q: What about the “ThT assay [Recovery]” value of the same compound?
A: 100%

Q: Which results are given for CC(=O)N[C@@H](CCC(=O)N[C@@H](CCC(=O)N[C@@H](CCC(=O)N[C@@H](CCC(=O)NCCCC[C@H](NC(=O)[C@@H](NC(=O)[C@H](Cc1ccccc1)NC(=O)[C@H](CC(=O)O)NC(=O)[C@H](CCC(N)=O)NC(=O)[C@H](C)NC(=O)[C@H](CCCNC(=N)N)NC(=O)[C@H](CCCNC(=N)N)NC(=O)[C@H](Cc1ccc(O)cc1)NC(=O)[C@H](CC(=O)O)NC(=O)[C@H](CC(C)C)NC(=O)[C@H](Cc1ccc(O)cc1)NC(=O)[C@H](CCCCN)NC(=O)[C@H](CO)NC(=O)[C@H](Cc1ccc(O)cc1)NC(=O)[C@H](CC(=O)O)NC(=O)[C@H](CO)NC(=O)[C@@H](NC(=O)[C@H](Cc1ccccc1)NC(=O)[C@@H](NC(=O)CNC(=O)[C@H](CCC(N)=O)NC(=O)[C@H](CO)NC(=O)[C@@H](N)Cc1c[nH]cn1)[C@@H](C)O)[C@@H](C)O)C(C)C)C(=O)N[C@@H](Cc1c[nH]c2ccccc12)C(=O)N[C@@H](CC(C)C)C(=O)N[C@@H](CC(C)C)C(=O)N[C@@H](CO)C(=O)N[C@H](C(=O)O)[C@@H](C)O)C(=O)O)C(=O)O)C(=O)O)C(=O)O [Example 37, N^ε24-[(4S)-4-[[(4S)-4-[[(4S)-4-[[(4S)-4-acetamido-4-carboxybutanoyl]amino]-4-carboxybutanoyl]amino]-4-carbox[…]ybutanoyl]amino]-4-carboxybutanoyl]-[Tyr16,Lys24,Leu27,Ser28]-Glucagon]?
A: ThT assay [Lag time]: 45 h; ThT assay [Recovery]: 87%

Q: With CC(=O)N[C@@H](CCC(=O)N[C@@H](CCC(=O)N[C@@H](CCC(=O)N[C@@H](CCC(=O)NCCCC[C@H](NC(=O)[C@@H](NC(=O)[C@H](Cc1ccccc1)NC(=O)[C@H](CC(=O)O)NC(=O)[C@H](CCC(N)=O)NC(=O)[C@H](C)NC(=O)[C@H](CCCNC(=N)N)NC(=O)[C@H](CCCNC(=N)N)NC(=O)[C@H](CC(C)C)NC(=O)[C@H](CC(=O)O)NC(=O)[C@H](CC(C)C)NC(=O)[C@H](Cc1ccc(O)cc1)NC(=O)[C@H](CCCCN)NC(=O)[C@H](CO)NC(=O)[C@H](Cc1ccc(O)cc1)NC(=O)[C@H](CC(=O)O)NC(=O)[C@H](CO)NC(=O)[C@@H](NC(=O)[C@H](Cc1ccccc1)NC(=O)[C@@H](NC(=O)CNC(=O)[C@H](CCC(N)=O)NC(=O)[C@H](CO)NC(=O)[C@@H](N)Cc1c[nH]cn1)[C@@H](C)O)[C@@H](C)O)C(C)C)C(=O)N[C@@H](Cc1c[nH]c2ccccc12)C(=O)N[C@@H](CC(C)C)C(=O)N[C@@H](CC(C)C)C(=O)N[C@@H](CO)C(=O)N[C@H](C(=O)O)[C@@H](C)O)C(=O)O)C(=O)O)C(=O)O)C(=O)O [Example 38, N^ε24-[(4S)-4-[[(4S)-4-[[(4S)-4-[[(4S)-4-acetamido-4-carboxybutanoyl]amino]-4-carboxybutanoyl]amino]-4-carboxybutanoyl]amino]-4-carboxybutanoyl]-[Leu16,Lys24,Leu27,Ser28]-Glucagon] as the compound, how does the “ThT assay [Lag time]” value read?
A: 45 h

Q: And the “ThT assay [Recovery]” value?
A: 100%

Q: With CC(=O)N[C@@H](CCC(=O)N[C@@H](CCC(=O)N[C@@H](CCC(=O)N[C@@H](CCC(=O)NCCCC[C@H](NC(=O)[C@@H](NC(=O)[C@H](Cc1ccccc1)NC(=O)[C@H](CC(=O)O)NC(=O)[C@H](CCC(N)=O)NC(=O)[C@H](C)NC(=O)[C@H](CCCNC(=N)N)NC(=O)[C@H](CCCNC(=N)N)NC(=O)[C@H](CC(C)C)NC(=O)[C@H](CC(=O)O)NC(=O)[C@H](CC(C)C)NC(=O)[C@H](Cc1ccc(O)cc1)NC(=O)[C@H](CCCNC(=N)N)NC(=O)[C@H](CO)NC(=O)[C@H](Cc1ccc(O)cc1)NC(=O)[C@H](CC(=O)O)NC(=O)[C@H](CO)NC(=O)[C@@H](NC(=O)[C@H](Cc1ccccc1)NC(=O)[C@@H](NC(=O)CNC(=O)[C@H](CCC(N)=O)NC(=O)[C@H](CO)NC(=O)[C@@H](N)Cc1c[nH]cn1)[C@@H](C)O)[C@@H](C)O)C(C)C)C(=O)N[C@@H](Cc1c[nH]c2ccccc12)C(=O)N[C@@H](CC(C)C)C(=O)N[C@@H](CC(C)C)C(=O)N[C@@H](CO)C(=O)N[C@H](C(=O)O)[C@@H](C)O)C(=O)O)C(=O)O)C(=O)O)C(=O)O [Example 39, N^ε24-[(4S)-4-[[(4S)-4-[[(4S)-4-[[(4S)-4-acetamido-4-carboxybutanoyl]amino]-4-carboxybutanoyl]amino]-4-carboxybutanoyl]amino]-4-carboxybutanoyl]-[Arg12,Leu16,Lys24,Leu27,Ser28]-Glucagon] (H-HSQGTFTSDYSRYLDLRRAQDFVK([γGlu-γGlu-γGlu-γGlu-Ac])WLLST-OH) as the compound, how does the “ThT assay [Lag time]” value read?
A: 45 h

Q: And the “ThT assay [Recovery]” value?
A: 99%

Q: For CC(=O)N[C@@H](CCC(=O)N[C@@H](CCC(=O)N[C@@H](CCC(=O)N[C@@H](CCC(=O)NCCCC[C@H](NC(=O)[C@@H](NC(=O)[C@H](Cc1ccccc1)NC(=O)[C@H](CC(=O)O)NC(=O)[C@H](CCC(N)=O)NC(=O)[C@H](C)NC(=O)[C@H](CCCNC(=N)N)NC(=O)[C@H](CCCNC(=N)N)NC(=O)[C@H](CC(C)C)NC(=O)[C@H](CC(=O)O)NC(=O)[C@H](CC(C)C)NC(=O)[C@H](Cc1ccc(O)cc1)NC(=O)[C@H](CCCNC(=N)N)NC(=O)[C@H](CO)NC(=O)[C@H](Cc1ccc(O)cc1)NC(=O)[C@H](CC(=O)O)NC(=O)[C@H](CO)NC(=O)[C@@H](NC(=O)[C@H](Cc1ccccc1)NC(=O)[C@@H](NC(=O)CNC(=O)[C@H](CCC(N)=O)NC(=O)[C@H](CO)NC(=O)[C@@H](N)Cc1c[nH]cn1)[C@@H](C)O)[C@@H](C)O)C(C)C)C(=O)N[C@@H](Cc1c[nH]c2ccccc12)C(=O)N[C@@H](CC(C)C)C(=O)N[C@@H](CC(C)C)C(=O)N[C@@H](CO)C(=O)N[C@H](C(=O)N1CCC[C@H]1C(=O)O)[C@@H](C)O)C(=O)O)C(=O)O)C(=O)O)C(=O)O [Example 40, N^ε24-[(4S)-4-[[(4S)-4-[[(4S)-4-[[(4S)-4-acetamido-4-carboxybutanoyl]amino]-4-carboxybutanoyl]amino]-4-carboxybutanoyl]amino]-4-carboxybutanoyl]-[Arg12,Leu16,Lys24,Leu27,Ser28]-Glucagonyl-Pro] (H-HSQGTFTSDYSRYLDLRRAQDFVK([γGlu-γGlu-γGlu-γGlu-Ac])WLLSTP-OH), which “ThT assay [Lag time]” value is on record?
A: 45 h

Q: What about the “ThT assay [Recovery]” value of the same compound?
A: 110%

Q: With CC(=O)N[C@@H](CCC(=O)N[C@@H](CCC(=O)N[C@@H](CCC(=O)N[C@@H](CCC(=O)NCCCC[C@H](NC(=O)[C@@H](NC(=O)[C@H](Cc1ccccc1)NC(=O)[C@H](CC(=O)O)NC(=O)[C@H](CCC(N)=O)NC(=O)[C@H](C)NC(=O)[C@H](CCCNC(=N)N)NC(=O)[C@H](CCCNC(=N)N)NC(=O)[C@H](CC(C)C)NC(=O)[C@H](CC(=O)O)NC(=O)[C@H](CC(C)C)NC(=O)[C@H](Cc1ccc(O)cc1)NC(=O)[C@H](CCCCN)NC(=O)[C@H](CO)NC(=O)[C@H](Cc1ccc(O)cc1)NC(=O)[C@H](CC(=O)O)NC(=O)[C@H](CO)NC(=O)[C@@H](NC(=O)[C@H](Cc1ccccc1)NC(=O)[C@@H](NC(=O)CNC(=O)[C@H](CCC(N)=O)NC(=O)[C@@H](NC(=O)[C@@H](N)Cc1c[nH]cn1)[C@@H](C)O)[C@@H](C)O)[C@@H](C)O)C(C)C)C(=O)N[C@@H](Cc1c[nH]c2ccccc12)C(=O)N[C@@H](CC(C)C)C(=O)N[C@@H](CC(C)C)C(=O)N[C@@H](CO)C(=O)N[C@H](C(=O)O)[C@@H](C)O)C(=O)O)C(=O)O)C(=O)O)C(=O)O [Example 41, N^e24-[(4S)-4-[[(4S)-4-[[(4S)-4-[[(4S)-4-acetamido-4-carboxybutanoyl]amino]-4-carboxybutanoyl]amino]-4-carboxybutanoyl]amino]-4-carboxybutanoyl]-[Thr^2,Leu^16,Lys^24,Leu^27,Ser^28]-Glucagon] (H-HTQGTFTSDYSKYLDLRRAQDFVK([γGlu-γGlu-γGlu-γGlu-Ac])WLLST-OH) as the compound, how does the “ThT assay [Lag time]” value read?
A: 45 h

Q: And the “ThT assay [Recovery]” value?
A: 100%

Q: With CC(=O)N[C@@H](CCC(=O)N[C@@H](CCC(=O)N[C@@H](CCC(=O)N[C@@H](CCC(=O)NCCCC[C@H](NC(=O)[C@@H](NC(=O)[C@H](Cc1ccccc1)NC(=O)[C@H](CC(=O)O)NC(=O)[C@H](CCC(N)=O)NC(=O)[C@H](C)NC(=O)[C@H](CCCNC(=N)N)NC(=O)[C@H](CCCNC(=N)N)NC(=O)[C@H](CC(C)C)NC(=O)[C@H](CC(=O)O)NC(=O)[C@H](CC(C)C)NC(=O)[C@H](Cc1ccc(O)cc1)NC(=O)[C@H](CCCCN)NC(=O)[C@H](CO)NC(=O)[C@H](Cc1ccc(O)cc1)NC(=O)[C@H](CC(=O)O)NC(=O)[C@H](CO)NC(=O)[C@@H](NC(=O)[C@H](Cc1ccccc1)NC(=O)[C@@H](NC(=O)CNC(=O)[C@H](CCC(N)=O)NC(=O)[C@H](C)NC(=O)[C@@H](N)Cc1c[nH]cn1)[C@@H](C)O)[C@@H](C)O)C(C)C)C(=O)N[C@@H](Cc1c[nH]c2ccccc12)C(=O)N[C@@H](CC(C)C)C(=O)N[C@@H](CC(C)C)C(=O)N[C@@H](CO)C(=O)N[C@H](C(=O)O)[C@@H](C)O)C(=O)O)C(=O)O)C(=O)O)C(=O)O [Example 42] (H-HAQGTFTSDYSKYLDLRRAQDFVK([γGlu-γGlu-γGlu-γGlu-Ac])WLLST-OH) as the compound, how does the “ThT assay [Lag time]” value read?
A: 45 h

Q: What about the “ThT assay [Recovery]” value of the same compound?
A: 100%
